Experimental data taken from PubChem BioAssay AID488969 (Vanderbilt High Throughput Screening Facility, 2010).
Whole data set: some 110,000 compounds, median “z-score” near -0.1, cut for the highest 2% near 2. The list shows a part of the results.

Molecular target: Metabotropic glutamate receptor 8 (Rattus norvegicus) (UniProt P70579)
Experiment: rat mGluR8 modulators via GIRK flux, primary screen, cell-based, thallium flux, HTS (AID 488969)
Details: HEK293 rat mGluR8, GIRK (G protein-gated inwardly rectifying potassium channel) thallium flux, FluoZin2; at 10 µM; stronger effect = higher value; submaximal glutamate (EC20) added with thallium

Sequence of UniProt P70579 (P70579 whole entry, looked up): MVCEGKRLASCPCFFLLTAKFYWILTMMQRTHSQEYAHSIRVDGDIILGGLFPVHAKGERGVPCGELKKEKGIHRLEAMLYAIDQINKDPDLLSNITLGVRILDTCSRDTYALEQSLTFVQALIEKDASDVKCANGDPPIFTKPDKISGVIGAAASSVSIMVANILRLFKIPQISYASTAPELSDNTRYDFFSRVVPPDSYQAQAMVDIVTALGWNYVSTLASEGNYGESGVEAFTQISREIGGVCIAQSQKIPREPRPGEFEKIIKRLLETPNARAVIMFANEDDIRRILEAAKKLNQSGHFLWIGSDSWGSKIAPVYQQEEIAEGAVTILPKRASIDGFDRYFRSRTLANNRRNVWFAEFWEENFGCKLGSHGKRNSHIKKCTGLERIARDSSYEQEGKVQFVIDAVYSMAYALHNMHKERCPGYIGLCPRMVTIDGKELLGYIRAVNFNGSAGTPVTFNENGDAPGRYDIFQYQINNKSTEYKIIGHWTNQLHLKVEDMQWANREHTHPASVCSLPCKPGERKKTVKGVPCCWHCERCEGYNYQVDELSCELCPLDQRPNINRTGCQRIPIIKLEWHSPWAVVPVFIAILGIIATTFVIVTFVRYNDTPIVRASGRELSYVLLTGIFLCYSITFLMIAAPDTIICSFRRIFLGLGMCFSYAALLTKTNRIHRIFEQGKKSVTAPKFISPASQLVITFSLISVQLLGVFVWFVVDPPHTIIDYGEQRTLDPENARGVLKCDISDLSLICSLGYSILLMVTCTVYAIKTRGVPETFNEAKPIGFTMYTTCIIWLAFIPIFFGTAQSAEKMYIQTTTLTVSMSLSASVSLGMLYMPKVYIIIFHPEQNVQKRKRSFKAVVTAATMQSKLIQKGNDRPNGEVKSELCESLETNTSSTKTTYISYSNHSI

| Compound | z-score |
| --- | --- |
| Cc1cccc(NC(=O)c2ccc(-n3ccnc3)nc2)c1 | -0.175 |
| CC(=O)NC1=NN(C(C)=O)C(C)(c2ccc(C)cc2)S1 (stereo not given) | -0.042 |
| O=C(COC(=O)CCCOc1ccc(Cl)cc1Cl)NCc1ccc(F)cc1 | -0.191 |
| CCOc1ccc(NC(=O)c2oc3ccccc3c2NC(=O)CC)cc1 | 0.0261 |
| Nc1ncnc2nc(SCC(=O)N3CCN(c4ccccc4)CC3)[nH]c12 | -0.237 |
| COc1ccccc1OCCCCOc1ccccc1C(C)=O | -0.231 |
| CN1CCN(c2cc(N3CCc4ccccc4C3)c(F)cc2[N+](=O)[O-])CC1 | 0.456 |
| O=C(c1ccccc1)c1c[nH]c2cc3c(cc2c1=O)OCO3 | -0.0651 |
| CCc1ccc(N(CC(=O)NC2CCCCC2)S(=O)(=O)c2c(C)noc2C)cc1 | 0.0724 |
| CCCC(O)(CCN1CCCCC1)c1ccc(OCC)cc1 (stereo not given) | 0.811 |
| O=C(CCS(=O)(=O)c1cc(Br)cc2c1N(C(=O)C1CC1)CC2)NCC1CCCO1 (stereo not given) | 0.285 |
| Cc1nc(C(C)(C)O)n(-c2ccccc2)n1 | -0.0441 |
| COCCCNC(=S)NC(=O)c1ccc([N+](=O)[O-])cc1 | 0.847 |
| Cc1ccc(NC(=O)CSc2nc(NS(=O)(=O)c3ccccc3)cc(=O)[nH]2)cc1 | -0.169 |
| COc1cc(NC(=O)C2CCN(S(=O)(=O)c3cnc[nH]3)CC2)cc(OC)c1OC | -0.49 |
| O=C(/C=C/c1ccc(Cl)c([N+](=O)[O-])c1)NCc1cccnc1 | 0.179 |
| CCOc1cc(C)c(Cl)cc1S(=O)(=O)N(C)C | 0.235 |
| COc1ccc(OC)c(S(=O)(=O)N2CCN(c3c(C)cccc3C)CC2)c1 | -0.517 |
| CCCCN(CC)C(=O)Cc1ccccc1OC | -0.0261 |
| O=C1CCc2cc(S(=O)(=O)N3CCC(C(=O)NC4CCCC4)CC3)ccc2N1 | 0.211 |
| COc1cccc(OC)c1OCCN(C)C | -0.123 |
| CCCC(c1nnnn1C(C)(C)CC)N1CCN(C2CCCC2)CC1 (stereo not given) | -0.327 |

| Compound | z-score |
| --- | --- |
| CC(C(=O)NCc1cccnc1)N1C(=O)c2ccccc2C1=O (stereo not given) | -0.0295 |
| Cc1ccc2nc(/C(C#N)=C\c3ccc(Oc4ccc(C(F)(F)F)cc4[N+](=O)[O-])cc3)[nH]c2c1 | -0.189 |
| CCOC(=O)C1CCCN(C(=O)c2cn(CC(C)C)c(=O)c3cc(OC)c(OC)cc23)C1 (stereo not given) | -0.759 |
| CCCCNC(=O)CCNC(=O)c1ccc(C(C)(C)C)cc1 | -0.345 |
| CCN(CC)S(=O)(=O)c1ccc(N2CCOCC2)c(NC(=O)Cc2ccccc2)c1 | -0.339 |
| CSc1ccc(S(=O)(=O)Nc2ccc3c4c(cccc24)CC3)cc1 | -0.0865 |
| Cc1ccc2c(c1)NC(=O)C(CC(=O)NCCCN1CCCC1)O2 (stereo not given) | 0.515 |
| COc1ccc(/C=C/c2nc3cc(-c4ccccc4)ccc3o2)cc1O | -0.0979 |
| COc1ccc(NC(=O)CSc2nnc(C3CC3)n2N)cc1 | 0.406 |
| COc1ccc(-c2nc(N)ncc2Oc2ccccc2Br)c(O)c1 | -0.207 |
| CCn1c(C)cc(/C=C2/SC(=S)NC2=O)c1C | 0.271 |
| COc1ccc(C2C3=C(N=C4SCC(=O)N42)c2ccccc2CC3)cc1OC (stereo not given) | -0.0972 |
| Cc1ccc(-c2ccc(CCC(=O)O)n2CC(=O)O)cc1 | -0.23 |
| Nc1ccc(C2(c3ccc(N)cc3)C(=O)Nc3ccccc32)cc1 | -0.763 |
| COc1ccc(-c2csc(N(CC3CCCO3)C(=O)c3ccc(C)cc3)n2)cc1 (stereo not given) | 0.0835 |
| Cc1[nH]n(-c2ccccc2)c(=O)c1C(C[N+](=O)[O-])c1ccccc1Cl (stereo not given) | -0.62 |
| Cc1nn(C)c(-c2n[nH]c(=S)n2Cc2ccco2)c1Cl | 0.099 |
| COCC(=O)Nc1nnc(COc2ccccc2)s1 | 1.53 |
| Cc1cc(C)n2nc(SCCC(=O)NCCc3ccccc3)nc2n1 | -0.398 |
| Cc1nc(C(=O)Nc2cccc(Cl)c2)nn1-c1cc(OC(C)C)c(Cl)cc1Cl | -0.414 |
| COc1ccc(C2=NOC(C(=O)N3CCN(c4ccccc4OC)CC3)C2)cc1 (stereo not given) | -0.609 |
| CC1(C)CC(=O)c2cnc(NC(=O)CSc3nc4ccccc4o3)nc2C1 | -0.17 |

| Compound | z-score |
| --- | --- |
| CC(NC(=O)Nc1ccccc1C(F)(F)F)C1CCCO1 (stereo not given) | 0.263 |
| Cc1cc(=O)n2nc(N3CCCC(C(=O)N4CCc5ccccc54)C3)sc2n1 (stereo not given) | 0.0947 |
| COc1ccccc1NC(=O)C(C/C=C(/C)Cl)C(C)=O (stereo not given) | 0.122 |
| CC(=O)Nc1ccc(NC(=O)CSc2ccc(C(F)(F)F)cc2[N+](=O)[O-])cc1 | -0.252 |
| O=C(Nc1ccc(Cl)c(C(F)(F)F)c1)N1CCCC(O)C1 (stereo not given) | -0.895 |
| Cc1ccc(-c2csc3n[nH]c(=S)n23)cc1 | -0.454 |
| CCCn1c(SCC(=O)N2c3ccccc3Sc3ccccc32)nc2c1c(=O)n(C)c(=O)n2C | 0.402 |
| O=C1c2ccccc2S(=O)(=O)N1CCOc1ccc(F)cc1 | 0.0834 |
| Cc1ccc(C)c(C(=O)COC(=O)CCCC(=O)Nc2cc(C(F)(F)F)ccc2Cl)c1 | -0.0981 |
| CN(C)c1ccc(/C=N/n2c(COc3ccccc3)n[nH]c2=S)cc1 | 0.208 |
| N#Cc1c(Cl)nc(N/N=C/c2ccccc2)c(Cl)c1Cl | 0.00479 |
| Cc1cc(-c2ccccc2)nc(N(C)NC(=O)c2c(F)cccc2F)c1S(C)(=O)=O | -0.207 |
| O=C(Cn1cnc2c(cnn2-c2ccc(F)cc2)c1=O)N1CCCc2ccccc21 | 0.383 |
| CCn1c(CC(=O)Nc2ccc(C)cc2)nnc1SCC(=O)N1CCN(c2ccccc2)CC1 | -0.245 |
| Nc1nc(N)nc(-c2ccccc2O)n1 | -0.0307 |
| Cc1ccnc(NC(=O)C2(c3cccs3)CCOCC2)c1 | -0.137 |
| Cc1ccc2nc(SCC(=O)Nc3cccc(S(=O)(=O)N(C)C)c3)[nH]c2c1 | -0.805 |
| O=C(Oc1csc(=S)n1C(=O)c1ccccc1)c1ccccc1 | 0.0692 |
| CNC(=O)c1nc[nH]c1C(=O)NC | 0.214 |
| Cc1ccc(Nc2nc(-c3ccc(S(=O)(=O)N4CCOCC4)cc3)cs2)cc1 | -0.143 |
| COc1ccc(C2=Nn3c(nnc3-c3cccnc3)SC2)cc1 | -0.699 |
| N#Cc1cc(-c2ccccc2)nnc1Sc1ccc(F)cc1 | 0.425 |

| Compound | z-score |
| --- | --- |
| CN(C1CCCCC1)S(=O)(=O)c1ccc(NC(=O)C2CCCCC2C(=O)O)cc1 (stereo not given) | -0.0592 |
| CCn1c(C)nc2cc(C(=O)NNC(=S)Nc3ccccc3Cl)ccc21 | 0.0157 |
| COc1ccccc1/C=C/C(=O)Nc1ccc2c(c1)CCC2 | -0.4 |
| C/C(=N\Nc1ccc([N+](=O)[O-])cc1[N+](=O)[O-])C(C)(C)C(C(=O)O)C(=O)O | -0.127 |
| CCOC(=O)c1nnc2ccnn2c1N | -0.132 |
| O=C(Nc1ccccc1N1CCN(c2ccc(F)cc2)CC1)C1CCCCC1 | 0.216 |
| Cc1ccc(-n2c(Cl)c(Cl)[nH]c(=O)c2=O)cc1 | -0.709 |
| CN=C1NN=C(c2cc(C)n(-c3c(C)n(C)n(-c4ccccc4)c3=O)c2C)CS1 | -0.133 |
| Cc1nc(Oc2ccccc2)c2ccccc2n1 | -0.0898 |
| O=C(CN1CCOCC1)Nc1ccc(Oc2ccccc2)cc1 | 1.91 |
| CCC(=O)Nc1ccc(N2CCC(C)CC2)cc1 | 0.203 |
| Cc1ccc(NC(=O)Nc2sc(=S)n(C)c2C)cc1 | 0.6 |
| CS(=O)(=O)N(CC(=O)Nc1cccnc1)c1ccc2c(c1)OCO2 | 0.76 |
| COc1ccc(/C=C(/C#N)C(=O)Nc2cccc(C)c2C)cc1C(=O)O | -0.158 |
| O=C1C(=O)N(CCN2CCOCC2)C(c2ccccn2)/C1=C(/O)c1ccccc1 (stereo not given) | 0.139 |
| N/C(=N\OC(=O)Cc1ccc(-c2ccccc2)cc1)c1ccccn1 | 0.151 |
| COc1ccc(C2C(C(=O)NCc3cccnc3)c3ccccc3C(=O)N2C)cc1OC (stereo not given) | -0.235 |
| CCOc1ccc2nc(NC(=O)CSc3nc(SC)ns3)sc2c1 | -0.147 |
| COC(=O)c1nn(-c2ccc(OC)cc2)c(=O)cc1Oc1cccc(Cl)c1 | -0.228 |
| CCSc1nc(O)c(Cc2ccccc2)c(=O)[nH]1 | -0.0379 |
| COc1ccc(C(=O)NCc2ccc3c(c2)OCO3)cc1S(=O)(=O)N(C)Cc1ccccc1 | -0.143 |
| CC(=O)NCCn1c(SCC(=O)NCCC(C)C)nc2ccccc2c1=O | -0.154 |

| Compound | z-score |
| --- | --- |
| O=C(CN1C(=O)c2ccccc2S1(=O)=O)Nc1ccc(S(=O)(=O)N2CCCCC2)cc1 | -1.11 |
| CCCCc1nc2ccccc2c(NC(=O)CNC(C)(C)C)c1CCC | -0.0211 |
| CCn1c(CC(=O)Nc2cccc(OC)c2)nnc1SCC(=O)N1CCN(c2ccccc2)CC1 | -1.27 |
| COc1ccc(N2CC(O)=C(c3nc(C)cs3)C2=N)cc1 | 0.128 |
| CCN(CC)CCCN(Cc1cc2cc(OC)c(OC)cc2[nH]c1=O)C(=O)Nc1ccccc1 | 0.204 |
| Cc1oncc1C(=O)NC(C)C | -0.192 |
| O=C(NCc1ccccc1F)C1CCCN1C(=O)NC1CCCCC1 (stereo not given) | -0.968 |
| CCOc1ccc(C(c2c(C)[nH][nH]c2=O)c2c(C)[nH][nH]c2=O)cc1OCC | 0.0251 |
| Cc1[nH]c2ccccc2c1C(=O)/C=C/c1ccccc1Cl | -0.0344 |
| Cc1ccc(CN(C(=O)c2cc(=O)c3cc(Cl)c(C)cc3o2)C2CCS(=O)(=O)C2)cc1 (stereo not given) | 0.162 |
| COc1ccc2[nH]c(C)c(C(=O)CN3CCOCC3)c2c1 | 0.0884 |
| NC(=O)c1ccccc1NC(=O)Nc1cccc(Cl)c1 | -0.363 |
| O=C(O)c1cccc(-c2nnn(Cc3ccccc3Cl)n2)c1 | 0.145 |
| COc1ccc(C2CC(c3ccc(C)o3)=NN2C(C)=O)cc1 (stereo not given) | -0.0426 |
| c1ccc(-c2oc3ncnc(NCCCn4ccnc4)c3c2-c2ccccc2)cc1 | 0.609 |
| Cc1cccc(C)c1OCC(=O)Nc1oc(-c2ccccc2)c(-c2ccccc2)c1C#N | -0.376 |
| CC(C)OC(=O)c1cc2c(ccn2C)n1CC(=O)N(Cc1ccccc1)c1ccccc1 | -0.243 |
| COc1ccc2cc(C(=O)c3ccccc3)c(=O)oc2c1 | -0.83 |
| O=C(NC1CCCC1)C(c1ccsc1)N(Cc1ccco1)C(=O)Cc1cccs1 (stereo not given) | -0.352 |
| O=C(CCS(=O)(=O)Cc1ccccc1)N1CCN(c2ccccc2)CC1 | 0.228 |
| Cc1ccc(OCCCC(=O)N2CCOCC2)cc1 | -0.00866 |
| CCc1ccc(/C=C(\Cl)c2nc3cc(Cl)ccc3c(=O)[nH]2)cc1 | 0.511 |
